Consider 45 compounds from paper PMC4336329 (PLoS ONE, 2015).

Out of some 310,000 compounds screened, about 2,200 (0.71%) showed an effect of 50% or more. The effect is printed as a negative number. The list shows a part of the results.

For this assay, the target named is human ether-à-go-go-related gene (hERG) potassium channel (human, UniProt Q12809). The experiment in a line: primary screen, population patch clamp on CHO cells stably expressing hERG.
Sequence of human ether-à-go-go-related gene (hERG) potassium channel (Q12809 whole entry, looked up): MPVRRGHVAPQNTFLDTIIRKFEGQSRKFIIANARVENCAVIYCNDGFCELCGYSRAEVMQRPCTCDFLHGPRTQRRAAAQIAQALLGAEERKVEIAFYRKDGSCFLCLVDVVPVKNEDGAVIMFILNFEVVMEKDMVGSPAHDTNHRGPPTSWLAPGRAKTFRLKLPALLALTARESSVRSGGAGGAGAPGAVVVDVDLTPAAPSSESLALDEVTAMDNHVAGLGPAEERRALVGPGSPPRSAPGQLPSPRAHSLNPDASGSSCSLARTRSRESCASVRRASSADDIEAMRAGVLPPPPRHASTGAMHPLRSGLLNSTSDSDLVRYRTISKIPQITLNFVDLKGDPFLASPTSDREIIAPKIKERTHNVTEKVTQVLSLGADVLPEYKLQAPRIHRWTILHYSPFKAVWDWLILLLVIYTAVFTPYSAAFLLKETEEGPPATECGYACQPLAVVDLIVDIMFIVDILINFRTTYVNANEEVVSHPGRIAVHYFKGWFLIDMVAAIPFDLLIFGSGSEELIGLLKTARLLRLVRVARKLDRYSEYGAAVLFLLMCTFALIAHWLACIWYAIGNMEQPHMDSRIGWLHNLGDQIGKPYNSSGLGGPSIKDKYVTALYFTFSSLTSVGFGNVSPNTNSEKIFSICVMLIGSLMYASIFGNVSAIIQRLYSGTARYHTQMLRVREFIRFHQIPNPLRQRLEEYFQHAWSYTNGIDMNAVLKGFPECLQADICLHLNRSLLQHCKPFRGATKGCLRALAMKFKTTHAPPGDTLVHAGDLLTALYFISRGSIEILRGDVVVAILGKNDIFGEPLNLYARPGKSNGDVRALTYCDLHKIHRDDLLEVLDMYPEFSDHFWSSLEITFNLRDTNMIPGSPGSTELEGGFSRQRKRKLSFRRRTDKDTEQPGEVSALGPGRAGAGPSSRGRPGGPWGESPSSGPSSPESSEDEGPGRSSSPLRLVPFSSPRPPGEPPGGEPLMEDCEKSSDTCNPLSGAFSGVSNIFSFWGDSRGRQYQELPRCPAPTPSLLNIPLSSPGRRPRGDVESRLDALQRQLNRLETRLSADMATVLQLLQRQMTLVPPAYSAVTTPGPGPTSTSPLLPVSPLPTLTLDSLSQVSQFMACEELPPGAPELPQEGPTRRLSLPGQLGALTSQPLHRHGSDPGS
With `CN(Cc1ccccc1)C(=O)c1[nH]cnc1C(=O)Nc1nccs1`, the “hERG current change (%, negative = inhibition) at 1uM” value is 7.25%.

As for `Cc1ccc(Sc2ccc(C(=O)N(C)C)cc2[N+](=O)[O-])cc1`, the “hERG current change (%, negative = inhibition) at 1uM” value was -13.8%.

As for `Cc1cccc(OCC(O)CN2CCc3ccccc3C2)c1.Cl` (stereo not drawn), the “hERG current change (%, negative = inhibition) at 1uM” value is given as -0.945%.

For `COc1ccc2[nH]c(C)c(CCNCc3cn(C)c4ccccc34)c2c1.O=C(O)C(=O)O`, the “hERG current change (%, negative = inhibition) at 1uM” value is given as 7.22%.

In the case of `CC(C)(C)OC(=O)CNC(=O)c1nc[nH]c1C(=O)NCc1ccccc1`, the “hERG current change (%, negative = inhibition) at 1uM” value is -1.26%.

For `C=CCn1c(SCc2c(C)noc2C)nnc1C1COc2ccccc2O1` (stereo not drawn), the “hERG current change (%, negative = inhibition) at 1uM” value was found to be 8.71%.

For the compound `Cn1c(-c2sc3cc(C(F)(F)F)cnc3c2-c2cccs2)n[nH]c1=S`, the “hERG current change (%, negative = inhibition) at 1uM” value is reported as 13%.

`Cc1ccc(S(=O)(=O)n2ccc3c2CCCC3=O)cc1`: the “hERG current change (%, negative = inhibition) at 1uM” value is on record as 9.17%.

On to `Cc1c(C(N)=O)sc(N)c1C(=O)OC(C)C`, for which the “hERG current change (%, negative = inhibition) at 1uM” value is 15%.

With `Cc1cc(C)cc(N=Cc2c(O)c3ccccc3oc2=O)c1`, the “hERG current change (%, negative = inhibition) at 1uM” value is reported as 12.2%.

As to `O=C(NCC1CCCO1)c1ccc(CSCc2cccc(F)c2)o1` (stereo not drawn), the “hERG current change (%, negative = inhibition) at 1uM” value is 9.7%.

As to `CCCCN(C)CCCNC(=O)CN1N=C(c2ccc(Cl)cc2)CCC1=O`, the “hERG current change (%, negative = inhibition) at 1uM” value is listed as -6.8%.

For the compound `O=C(COc1ncnc2cc([N+](=O)[O-])ccc12)NCCc1ccc(Cl)cc1`, the “hERG current change (%, negative = inhibition) at 1uM” value was found to be 6.19%.

`CC(C)CCNC(=O)c1ccc2c(c1)N(C)C(=O)c1ccccc1S2`: the “hERG current change (%, negative = inhibition) at 1uM” value is on record as -25.6%.

On to `O=C(O)c1ccc(N2C(=O)CC(N3C(=O)/C(=C/c4ccc(Cl)cc4)SC3=S)C2=O)cc1` (stereo not drawn), for which the “hERG current change (%, negative = inhibition) at 1uM” value came to 8.56%.

`CCNC(=S)N(CCc1c(C)[nH]c2ccc(C)cc12)Cc1ccco1`: the “hERG current change (%, negative = inhibition) at 1uM” value worked out at 7.27%.

On to `COc1cccc(C2(c3cccc(OC)c3)CC2C(=O)Nc2ccccc2Cl)c1` (stereo not drawn), for which the “hERG current change (%, negative = inhibition) at 1uM” value is on record as 14.8%.

As for `COc1ccc(C(=O)NC2CCN(C(=S)NCc3ccco3)CC2)cc1`, the “hERG current change (%, negative = inhibition) at 1uM” value is reported as -4.74%.

On to `Nc1c(C(=O)Nc2ccc(Cl)c(C(=O)O)c2)sc2nc3c(cc12)CCCC3`, for which the “hERG current change (%, negative = inhibition) at 1uM” value is -0.711%.

In the case of `Cc1ccc(C(=O)NC(C)c2ccccc2)o1` (stereo not drawn), the “hERG current change (%, negative = inhibition) at 1uM” value was -0.6%.

`O=C(COC(=O)c1ccc[nH]c1=O)NCCc1ccc(F)cc1`: the “hERG current change (%, negative = inhibition) at 1uM” value turned out to be 8.36%.

Turning to `CC1CCN(C(=O)C2CCN(CC(C)c3ccccc3)CC2)CC1.O=C(O)C(=O)O` (stereo not drawn), the “hERG current change (%, negative = inhibition) at 1uM” value is given as -6.64%.

As for `O=C(NCCc1ccccc1)c1coc(=O)c(Br)c1`, the “hERG current change (%, negative = inhibition) at 1uM” value came to 15.6%.

Regarding `Cc1nc2ccccc2n1S(=O)(=O)c1cc(C(=O)O)ccc1Cl`, the “hERG current change (%, negative = inhibition) at 1uM” value came to 11.4%.

Take `CC(=O)c1cccc(OCc2cc(C(=O)N3CCC(N4CCCCC4)CC3)no2)c1`: the “hERG current change (%, negative = inhibition) at 1uM” value was 3.33%.

Regarding `COc1ccccc1NC(=O)c1cnc(Nc2ccccc2OC)c2ccccc12`, the “hERG current change (%, negative = inhibition) at 1uM” value came out at 3.67%.

Regarding `C=CCc1cccc(CNc2nc3ccccc3n2C(C)C)c1O`, the “hERG current change (%, negative = inhibition) at 1uM” value is -11.4%.

For the compound `Cc1ccc(C(=O)NC(=S)Nc2ccc(-c3cc4ccccc4oc3=O)cc2)c(C)c1`, the “hERG current change (%, negative = inhibition) at 1uM” value was determined as 22.4%.

As for `Cc1ccccc1-c1nnc(-c2cccs2)o1`, the “hERG current change (%, negative = inhibition) at 1uM” value is 13%.

As to `COc1cc(/C=C2\COC/C(=C\c3ccc(O)c(OC)c3)C2=O)ccc1O`, the “hERG current change (%, negative = inhibition) at 1uM” value was determined as 5.58%.

As for `COc1ccccc1N1CCN(C2CCCN(Cc3cc(F)cc(F)c3)C2)CC1` (stereo not drawn), the “hERG current change (%, negative = inhibition) at 1uM” value is 8.82%.

Turning to `Cc1cccc2c(C(=O)Nc3ccc(Br)cc3)cc(-c3ccccn3)nc12`, the “hERG current change (%, negative = inhibition) at 1uM” value is given as 13.5%.

With `CC(C)(C)c1ccccc1NC(=O)COC(=O)CN1C(=O)NC2(CCCC2)C1=O`, the “hERG current change (%, negative = inhibition) at 1uM” value was 4.77%.

As to `Cc1ccsc1C(C(=O)NC1CCCCC1)N(C(=O)Cc1cccs1)C1CC1` (stereo not drawn), the “hERG current change (%, negative = inhibition) at 1uM” value is given as 6.91%.

As for `Cc1ccc(C)c(-n2ccnc2SCC(=O)c2c(N)n(C3CC3)c(=O)[nH]c2=O)c1`, the “hERG current change (%, negative = inhibition) at 1uM” value worked out at 7.73%.

In the case of `CCN1CCc2c(sc(NC(=O)Cc3ccccc3)c2C(N)=O)C1.Cl`, the “hERG current change (%, negative = inhibition) at 1uM” value is recorded as 1.01%.

In the case of `O=C(NNC(=O)C1CCN(S(=O)(=O)c2ccc(Cl)cc2)CC1)c1ccncc1`, the “hERG current change (%, negative = inhibition) at 1uM” value is 10.7%.

Take `O=C(NCc1cccs1)c1ccccc1F`: the “hERG current change (%, negative = inhibition) at 1uM” value came to 8.21%.

Consider `CN1CCN(CCC(=O)N/N=C/c2cc3c(cc2[N+](=O)[O-])OCO3)CC1`, for which the “hERG current change (%, negative = inhibition) at 1uM” value is on record as 1.87%.

On to `CO/N=C(\Cn1ncc(N2CCOCC2)c(Br)c1=O)c1ccc(Cl)cc1`, for which the “hERG current change (%, negative = inhibition) at 1uM” value is 1.96%.

Take `CCOC(=O)c1oc2ccccc2c1CN1CCOCC1.Cl`: the “hERG current change (%, negative = inhibition) at 1uM” value is given as -5.9%.

For the compound `O=C(Cn1[nH]c(=O)c2ccccc2c1=O)OCC(=O)N1CCCc2ccccc21`, the “hERG current change (%, negative = inhibition) at 1uM” value was determined as 12.9%.

With `O=C(O)CC/C(=N\NC(=O)CNC(=O)c1ccc(F)cc1)c1ccccc1`, the “hERG current change (%, negative = inhibition) at 1uM” value worked out at 10.4%.

For `Cc1nn(-c2ccccc2)c(C)c1NC(=O)COC(=O)[C@@H](NC(=O)c1ccccc1)C(C)C`, the “hERG current change (%, negative = inhibition) at 1uM” value amounted to 9.67%.

Consider `CS(=O)(=O)N1CCN(c2ncnc3c2cnn3-c2ccccc2)CC1`, for which the “hERG current change (%, negative = inhibition) at 1uM” value amounted to 11.9%.
